Assay results as given in the supplement of paper PMC12217912.
Some of the results follow. The full chains were built here from the parent and the listed change. Values near 0.05 are background.

B1: TEV protease; numbered along this chain (parent)
chain: MGESLFKGPRDYNPISSSICHLTNESDGHTTSLYGIGFGPFIITNKHLFRRNNGTLVVQSLHGVFKVKDTTTLQQHLVDGRDMIIIRMPKDFPPFPQKLKFREPQREERICLVTTNFQTKSMSSMVSDTSCTFPSGDGIFWKHWIQTKDGQCGSPLVSTRDGFIVGIHSASNFTNTNNYFTSVPKNFMELLTNQEAQQWVSGWRLNADSVLWGGHKVFMVKPEEPFQPVKEATQL

Variants of: B1
Experiment: raw area under fraction-flipped curve 0-4 h after induction (AUC4h, not background-subtracted), DNA-recorder readout of cleavage of the substrate (dimensionless); higher = more cleavage of the substrate by the protease variant
Details: temperature: 34 °C; time window: 0-4 h after rhamnose induction
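Further: Bxb1 expression induced with 0.2% (w/v) L-rhamnose at OD600 near 0.5, cultures sampled hourly, flipped fraction per protease–substrate barcode pair counted by paired-end Illumina sequencing.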

Variant	area with substrate ENLYFCS	area with substrate ENLYFES	area with substrate ENLYFFS	area with substrate ENLYFGS	area with substrate ENLYFHS	area with substrate ENLYFIS	area with substrate ENLYFKS	area with substrate ENLYFLS	area with substrate ENLYFMS	area with substrate ENLYFNS	area with substrate ENLYFPS	area with substrate ENLYFRS	area with substrate ENLYFSS	area with substrate ENLYFVS	area with substrate ENLYFWS	area with substrate ENLYFYS	area with substrate ENLYFTS	area with substrate ENLYFDS
MGESLFKGPRDYNPISSSICHLTNESDGHTTSLYGIGFGPFIITNKHLFRRNNGTLVVQSLHGVFKVKDTTTLQQHLVDGRDMIIIRMPKDFPPFPQKLKFREPQREERICLVTTNFQTKSMSSMVSDTSCTFPSGDGIFWKHWIQTKDGQCGSPLVSTRDGFDVGIHSASNFTNTNNYFTSVPKNFMELLTNQEAQQWVSGWRLNADSVLWGGHKVFMVKPEEPFQPVKEATQL [I164D]	0.0716	0.061	0.0604	0.0586	0.0615	0.061	0.0486	0.0637	0.0506	0.0492	0.0161	0.0491	0.052	0.0683	0.0531	0.0544	–	–
MGESLFKGPRDYNPISSSICHLTNESDGHTTSLYGIGFGPFIITNKHLFRRNNGTLVVQSLHGVFKVKDTTTLQQHLVDGRDMIIIRMPKDFPPFPQKLKFREPQREERICLVTTNFQTKSMSSMVSDTSCTFPSGDGIFWKHWIQTKDGQCGSPLVSTRDGFIVGIHSASNFTNTNNYFTSVPKNFMELLTNQEAQQWVSGNRLNADSVLWGGHKVFMVKPEEPFQPVKEATQL [W203N]	0.0578	0.0669	–	–	0.0491	0.0574	–	0.0689	0.0872	0.0624	0.0659	0.0604	–	–	–	0.0411	0.0581	–
MGESLFKGPRDYNPISSSICHLTNESDGHTTSLYGIGFGPFIITNKHLFRRNNGTLVVQSLHGVFKVKDTTTLQQHLVDGRDMIIIRMPKDFPPFPQKLKFREPQREERICLVTTNFQTKSMSSMVSDTSCTFPSGDGIFWKHWIQTKDGQCGSPLVSTRDGFIVGIHSASNFTNTNNYFTSVPKNFMELLTNQEAQQWVSGWRLNADSVLWGGHKVFMVKDEEPFQPVKEATQL [P222D]	0.0568	0.062	0.0668	–	0.0574	0.0462	0.0577	–	–	0.064	0.0672	0.0661	0.0577	–	–	0.0506	0.0573	0.0598
MGESLFKGPRDYNPISSSICHLTNESDGHTTSLYGIGFGPFIITNKHLFRRNNGTLVVQSLHGVFKVKDTTTLQQHLVDGRDMIIIRMPKDFPPFPQKLKFREPQREERICLVTTNFQTKSMSSMVSDTSCTFPSGDGIFWKHWIQTKDGQCGSPLVSTRDGFIVGIHSASNFTNTNNYFTSVPKNFMELLTNFEAQQWVSGWRLNADSVLWGGHKVFMVKPEEPFQPVKEATQL [Q194F]	0.0417	–	0.0485	–	–	0.0526	–	–	–	–	0.0603	–	0.0585	0.0502	0.0623	0.0572	0.059	–
MGESLFKGPRDYNPISSSICHLTNESDGHTTSLYGIGFGPFIITNKHLFRRNNGTLVVQSLHGVFKVKDTTTLQQHLVDGRDMIIIRMPKDFPPFPQKLKFREPQREERICLVTTNFQTKSMSSMVSDTSCTFPSGDGIFWKHWIQTKDGQCGSPLVSTRDGFIVGIHSASNFTNTNNYFTSVPKNMMELLTNQEAQQWVSGWRLNADSVLWGGHKVFMVKPEEPFQPVKEATQL [F187M]	0.0467	0.0804	0.0691	–	0.0619	0.0511	0.0566	–	0.0623	0.0544	0.0632	0.0506	–	0.0624	0.0289	0.0553	0.061	–
MGESLFKGPRDYNPISSSICHLTNESDGHTTSLYGIGFGPFIITNKHLFRRNNGTLVVQSLHGVFKVKDTTTLQQHLVDGRDMIIIRMPKDFPPFPQKLKFREPQREERICLVTTNFQTKSMSSMVSDTSCTFPSGDGIFWKHWIQTKDGQCGSPLVSTRDGFIVGIHSAMNFTNTNNYFTSVPKNFMELLTNQEAQQWVSGWRLNADSVLWGGHKVFMVKPEEPFQPVKEATQL [S171M]	0.0572	0.0554	0.0619	0.062	0.0597	0.0606	0.056	0.0484	0.0595	0.0432	0.072	0.067	–	0.0563	0.0613	0.0624	0.0566	–
MGESLFKGPRDYNPISSSICHLTNESDGHTTSLYGIGFGPFIITNKHLFRRNNGTLVVQSLHGVFKVKDTTTLQQHLVDGRDMIIQRMPKDFPPFPQKLKFREPQREERICLVTTNFQTKSMSSMVSDTSCTFPSGDGIFWKHWIQTKDGQCGSPLVSTRDGFIVGIHSASNFTNTNNYFTSVPKNFMELLTNQEAQQWVSGWRLNADSVLWGGHKVFMVKPEEPFQPVKEATQL [I86Q]	–	0.0449	0.047	–	0.0447	0.0326	0.0343	0.0332	0.0367	0.0367	0.0373	0.0556	–	–	0.0362	0.0412	0.0482	0.0411
MGESLFKGPRDYNPISSSICHLTNESDGHTTSLYGIGFGPFIITNKHLFRRNNGTLVVQSLHGVFKVKDTTTLQQHLVDGRDMIIIRMPKDFPPFPQKLKFREPQREERICLVTTNFQTKSMSSMVSDTSCTFPSGDGIFWKHWIQTKDGQCGSPLVSTRDGFIVGIHSASNFTNKNNYFTSVPKNFMELLTNQEAQQWVSGWRLNADSVLWGGHKVFMVKPEEPFQPVKEATQL [T176K]	0.0625	0.0611	–	–	–	0.0644	0.0625	0.0564	0.0595	–	–	0.0423	–	0.0685	0.069	0.0841	–	0.058
MGESLFKGPRDYNPISSSICHLTNESDGHTTSLYGIGFGPFIITNKHLFRRNNGTLVVQSLHGVFKVKDTTTLQQHLVDGRDMIRIRMPKDFPPFPQKLKFREPQREERICLVTTNFQTKSMSSMVSDTSCTFPSGDGIFWKHWIQTKDGQCGSPLVSTRDGFIVGIHSASNFTNTNNYFTSVPKNFMELLTNQEAQQWVSGWRLNADSVLWGGHKVFMVKPEEPFQPVKEATQL [I85R]	–	0.0646	0.0575	0.0502	–	0.0583	–	–	0.0597	0.031	0.0726	0.0581	–	–	–	0.0517	0.0744	0.0577
MGESLFKGPRDYNPISSSICHLTNESDGHTTSLYGIGFGPFIITNKHLFRRNNGTLVVQSLHGVFKVKDTTTLQQHLVDGRDMIIIRMPKDFPPFPQKLKFREPQREERICLVTTNFQTKSMSSMVSDTSCTFPSGDGIFWKHWIQTKDGQCGSPLVSTRDGFIVGIHSASNFTNTNNYFTSVPKNFMELLTNQEAQQWVSGWRLNADSVLWGGHKPFMVKPEEPFQPVKEATQL [V217P]	0.0608	0.0717	0.0677	0.0567	–	0.0556	–	0.062	0.0525	0.0589	0.0593	0.062	–	0.0561	0.0564	0.0476	0.0648	0.0639
MGESLFKGPRDYNPISSSICHLTNESDGHTTSLYGIGFGPFIITNKHLFRRNNGTLVVQSLHGVFKVKDTTTLQQHLVDGRDMIIIRMPKDFPPFPQKLKFREPQREERICLVTTNFQTKSMSSMVSDTSCTFPSGDGIFWKHWIQTKDGQCGSPLVSTRDGFIVGIHSASNFTNTNNYFTSVPKNFMELLTNQEAQQWVSGWRLNADSVLWGGHKVFMVKPEEPFQPVDEATQL [K230D]	0.0601	0.0668	0.0669	0.0659	0.0605	0.0619	0.0623	–	0.0749	0.0701	0.0539	–	0.0369	0.0581	–	–	0.0473	–
MGESLFKGPRDYNPISSSICHLTNESWGHTTSLYGIGFGPFIITNKHLFRRNNGTLVVQSLHGVFKVKDTTTLQQHLVDGRDMIIIRMPKDFPPFPQKLKFREPQREERICLVTTNFQTKSMSSMVSDTSCTFPSGDGIFWKHWIQTKDGQCGSPLVSTRDGFIVGIHSASNFTNTNNYFTSVPKNFMELLTNQEAQQWVSGWRLNADSVLWGGHKVFMVKPEEPFQPVKEATQL [D27W]	–	0.0598	0.0648	0.0619	–	0.0411	–	0.0571	0.0653	–	0.0408	0.0715	0.0331	–	–	–	0.0534	0.0627
MGESLFKGPMDYNPISSSICHLTNESDGHTTSLYGIGFGPFIITNKHLFRRNNGTLVVQSLHGVFKVKDTTTLQQHLVDGRDMIIIRMPKDFPPFPQKLKFREPQREERICLVTTNFQTKSMSSMVSDTSCTFPSGDGIFWKHWIQTKDGQCGSPLVSTRDGFIVGIHSASNFTNTNNYFTSVPKNFMELLTNQEAQQWVSGWRLNADSVLWGGHKVFMVKPEEPFQPVKEATQL [R10M]	–	0.0713	0.068	–	0.0802	0.059	0.064	–	–	0.0882	0.0541	–	–	0.0514	0.0532	0.0536	–	0.0543
MGESLFKGPRDYNPISSSICHLTNESDGHTTSLYGIGFGPFIITNKHLFRRNNGTLVVQSLHGVFKVKDTTTLQQHLVDGRDMIIIRMPKDFPPFPQKLKFREPQREERICLVTTNFQTKSMSSMVSDTSCTFPSGDGIGWKHWIQTKDGQCGSPLVSTRDGFIVGIHSASNFTNTNNYFTSVPKNFMELLTNQEAQQWVSGWRLNADSVLWGGHKVFMVKPEEPFQPVKEATQL [F140G]	–	0.0653	0.0699	0.0525	0.0559	0.0487	–	–	0.0646	0.0647	0.055	0.052	0.0672	–	–	–	0.0644	0.0484
MGESLFKGPRDYNPISSSICHLTNESDGHTTSLYGIGFGPFIITNKHLFRRNNGTLVVQSLHGVFKVKDTTTLQQHLVDGRDMIIIRMPKDFPPFPQKLKFREPQREERICLVTTNFQTKSMSSMVSDTSCTFPSGDGIFWKHWIQTKDGQCGSPLVSTRDGFIVGIHSASNFTNTNNYFTSVPKNFMELLTNQEAQQWVSGWRLNADSVLWGGHKVFMVKPEEPFQPFKEATQL [V229F]	0.0419	–	0.0614	0.0605	0.0365	0.0554	0.0616	0.0502	0.0706	0.0676	–	–	0.0741	–	0.072	0.0584	0.0563	0.0487
MGESLFKGPRDYNPISSSICHLTNESDGHTTSLYGIGFGPFIITNKHLFRRNNGTLVVQSLHGVFKVKDTTTLQQHLVDGRDMIIIRMPKDFPPFPQKLKFREPQREEGICLVTTNFQTKSMSSMVSDTSCTFPSGDGIFWKHWIQTKDGQCGSPLVSTRDGFIVGIHSASNFTNTNNYFTSVPKNFMELLTNQEAQQWVSGWRLNADSVLWGGHKVFMVKPEEPFQPVKEATQL [R109G]	–	0.0647	0.0583	0.0542	0.0561	0.0612	0.0375	–	0.0737	0.0593	0.0593	0.0658	–	0.0079	0.0643	0.0599	0.0593	0.0527
MGESLFKGPRDYNPISSSICHLTNESDGHTTSLYGIGFGPFIITNKHLFRRNNGTLVVQSLHGVFKVKDTTTLQQHLVDGRDMIIIRMPKDFPPFPQKLKFREPQREERICLVTTNFQTKSMSSMVSDTSCTFPSGDGIFWKHWIQTKDGQCGSPLVSTRDGFIVGIHSASNFTNTNNYFTSVPKNFPELLTNQEAQQWVSGWRLNADSVLWGGHKVFMVKPEEPFQPVKEATQL [M188P]	0.0524	0.056	0.0761	–	–	0.0516	0.0609	0.0651	0.0532	0.084	–	0.0599	–	–	0.0553	–	0.0575	0.0721
MGESLFKGPRDYNPISSSICHLTNESDGHTTSLYGIGFGPFIITNKHLFRRNNGTLVVQSLHGVFKVKDTTTLQQHLVDGRDMIIIRMPKDFPPFPQKLKFREPQREERICLVTTNFQTKSMSSMVSDTSCTFPSGDGIFWKHWIQTKDGQCGSPLVSTRDGFIVGIHSASNFTNTNNYFTSVPKNFMELLTNQEAQQWVSGWRLNADSVLWGGHKVFMVKPEEPFKPVKEATQL [Q227K]	0.0576	0.0702	0.0907	–	–	0.0547	0.0641	0.0875	0.0721	0.0653	0.0592	–	0.0554	–	–	0.0535	0.0388	–
